Measured values reported in PubChem BioAssay AID624417 (National Center for Advancing Translational Sciences (NCATS), 2012).
Where “and” joins values, the source holds several entries; their conditions need not be identical. Equal entries are not always repeated. In all, about 410,000 compounds went through this assay and about 6,400 (1.6%) were called active. The shares of active, inactive and inconclusive entries below differ from those in the screen. Calls come from the whole dose curve; as a rule, active = well fitted inhibition curve with a large enough effect; inconclusive = small, poorly fitted or top-dose-only effect; inactive = no such curve, though single readings can be large or run the other way. Where the call is inconclusive, the potency comes from a doubtful curve fit.

Molecular target: Glucagon-like peptide 1 receptor (Homo sapiens) (UniProt P43220)
UniProt P43220, sequence (P43220 whole entry, looked up): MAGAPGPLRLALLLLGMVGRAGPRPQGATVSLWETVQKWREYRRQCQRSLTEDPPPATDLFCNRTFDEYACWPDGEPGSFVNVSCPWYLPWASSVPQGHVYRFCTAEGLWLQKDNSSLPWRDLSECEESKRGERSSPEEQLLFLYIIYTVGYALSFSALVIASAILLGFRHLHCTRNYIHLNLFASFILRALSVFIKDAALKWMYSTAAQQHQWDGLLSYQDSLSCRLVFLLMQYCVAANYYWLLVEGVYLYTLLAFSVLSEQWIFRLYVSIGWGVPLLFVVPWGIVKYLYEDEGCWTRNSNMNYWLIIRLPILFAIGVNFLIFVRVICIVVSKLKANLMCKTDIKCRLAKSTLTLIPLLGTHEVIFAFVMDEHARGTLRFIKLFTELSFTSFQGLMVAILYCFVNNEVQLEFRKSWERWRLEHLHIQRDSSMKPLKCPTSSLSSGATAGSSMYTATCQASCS
Test: qHTS of GLP-1 Receptor Inverse Agonists (Inhibition Mode); note: nearly all actives have a fitted effect of over 55% in size
Conditions: HEK293 GLP-1R CRE-luciferase, luminescence, 24 h, GLP-1R form is constitutively active; activity change, negative = inhibition: at 38.3 µM (top of the series) unless noted
Method in brief: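 Inverse agonists were sought by their lowering of basal cAMP reporter luciferase output in HEK293 cells stably carrying constitutively active human GLP-1R, after 24 h compound treatment.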
% is set by controls: 0 for no effect and ±100 for the full control effect; potency is the fitted concentration of half-maximal effect; tags give direction and shape of the fitted curve.

Structure (SMILES)	Potency	activity change, negative = inhibition
c1ccc2c(c1)c1c(c3ccccc32)CN2CCCC2C1 (stereo unspecified)	inconclusive: 28.2 µM [inhibitor, single point]	
Cc1ccc(Cc2c(-c3ccccc3)nc3ccc(Cl)cn23)cc1	inconclusive: 8.91 µM [inhibitor, partial curve, poor fit]	
CCOC(=O)C1=C(C)N=C2SC=C(C)N2C1c1ccc(OC)cc1 (stereo unspecified)	inconclusive: 2.24 µM [inhibitor, full curve, poor fit]	
Cc1cc(Nc2cccc([N+](=O)[O-])c2)n2c(nc3ccccc32)c1C#N	inconclusive: 3.98 µM [inhibitor, full curve, poor fit]	
Cc1nc2ccccc2n1-c1nc(-c2ccco2)cc(C(F)(F)F)n1	inconclusive: 5.01 µM [inhibitor, full curve, poor fit]	
COC(=O)N/N=C\c1cc(Br)ccc1OCc1ccccc1	inconclusive: 20 µM [inhibitor, single point]	
CCOC(=O)c1cc(-c2ccccc2)n(-c2cccc(C(=O)Nc3ccc(F)c(F)c3)c2)c1C	inconclusive: 5.62 µM [inhibitor, partial curve, poor fit]	
COc1c(C)cc(S(=O)(=O)NCCc2c(C)[nH]c3ccccc23)c(C)c1C	inconclusive: 28.2 µM [inhibitor, single point]	
COCCn1c(C)cc(C(=O)CSc2cc(C)c3ccccc3n2)c1C	active: 12.6 µM	
Cc1cc2c(cc(C(=O)OC(C)C(=O)NCc3ccccc3)n2C)o1 (stereo unspecified)	inconclusive: 28.2 µM [inhibitor, single point]	
COc1cc(/C=N/NC(=O)c2cc(-c3ccccc3)nc3ccccc23)ccc1O		inactive: 2.13%
COc1ccc(OC)c(/C=N/NC(=O)c2cc(-c3ccc(C)o3)nc3ccccc23)c1		inactive: 30.6%
CC(C)(CN1CCN(Cc2ccccc2)CC1)NS(=O)(=O)c1ccc(Cl)cc1	inconclusive: 10 µM [inhibitor, partial curve, poor fit]	
O=C(NC1CCCCCC1)c1ccccc1-c1ccccc1	inconclusive: 11.2 µM [inhibitor, partial curve, poor fit]	
COc1ccccc1CN1C[C@@H]2C[C@@H](c3ccccc3OC)N3CCC[C@@]23C1=O	inconclusive: 1.58 µM [inhibitor, full curve, poor fit]	
O[C@@H]1C[C@H](c2ccccc2)N(Cc2cccs2)C[C@H]1n1cc(C2CC2)nn1	inconclusive: 11.2 µM [inhibitor, partial curve, poor fit]	
C/C(=N\NC(=S)NCC(C)(C)C)c1cc(F)cc(F)c1O	inconclusive: 0.501 µM [inhibitor, full curve, poor fit]	
O=C(Nc1c(F)cccc1F)c1cnc(N2CCN(c3ccccn3)CC2)c2ccccc12	inconclusive: 12.6 µM [inhibitor, single point]	
Cn1c(SCC(=O)Nc2cc(C(C)(C)C)nn2-c2ccccc2)nc2ccccc21	inconclusive: 11.2 µM [inhibitor, partial curve, poor fit]	
CC1=CC(C)(C)N(C(=O)CSc2nnc(N)s2)c2c(C)cc(C)cc21		inactive: 8.31%
O=C(NC(=S)NC1CCSC1=O)c1cccc([N+](=O)[O-])c1 (stereo unspecified)	inconclusive: 6.31 µM [inhibitor, full curve, poor fit]	

Structure (SMILES)	Potency	activity change, negative = inhibition
O=S(=O)(c1cccc2ccccc12)N1CCCCC1	inconclusive: 10 µM [inhibitor, partial curve, poor fit]	
Cc1cc(C)cc(C(=O)Nc2ccc(-c3nc4ncccc4o3)cc2)c1		inactive: 0.413%
CCN1CCSc2ccc(C(=O)NC(C)c3ccccc3)cc21 (stereo unspecified)	inconclusive: 28.2 µM [inhibitor, single point]	
O=C(NCc1ccc(Cl)cc1)c1cc(S(=O)(=O)N2CCCCC2)c[nH]1	inconclusive: 15.8 µM [inhibitor, partial curve, poor fit] and inconclusive: 12.6 µM [inhibitor, partial curve, poor fit]	
CCN(CC)CCNc1ccc(C)c2sc3ccc(O)cc3c(=O)c12	active: 10 µM	
CCOCCCNC(=O)/C(C#N)=C/c1cc(OC)c(O)c([N+](=O)[O-])c1	inconclusive: 11.2 µM [inhibitor, partial curve, poor fit]	
COc1ccc(-c2cc(-c3ccccc3)no2)cc1	inconclusive: 11.2 µM [inhibitor, single point]	
CCN(CC)S(=O)(=O)c1ccc(NC(=O)COc2nc3ccccc3nc2N2CCOCC2)cc1	inconclusive: 17.8 µM [inhibitor, partial curve, poor fit]	
Cc1[nH]c2ccc(Br)cc2c(=S)c1C/C=C/Cl	inconclusive: 11.2 µM [inhibitor, single point]	
COc1ccc(C2CC(c3ccc(Cl)cc3)=NN2C(C)=O)cc1 (stereo unspecified)	inconclusive: 17.8 µM [inhibitor, single point]	
CSc1nc2sc3c(c2c(=O)n1CC(C)C)CC(C)(C)OC3	inconclusive: 28.2 µM [inhibitor, partial curve, poor fit]	
O=C(CSc1nc2ccccc2c(=O)n1NC(=O)c1ccccc1)c1ccc(Cl)cc1	inconclusive: 28.2 µM [inhibitor, single point]	
CC(C(=O)Nc1cccc(C#N)c1)n1nc(-c2ccccc2)c2c(c1=O)CCCC2 (stereo unspecified)	inconclusive: 28.2 µM [inhibitor, single point]	
COc1ccc(C2CC(c3cccs3)=NN2C(=O)c2ccc(Br)o2)cc1 (stereo unspecified)		inactive: 2.02%
CCOC(=O)C(C(=O)Nc1nccs1)C1CCCCC1 (stereo unspecified)	inconclusive: 28.2 µM [inhibitor, single point]	
CC1=C(C(=O)Nc2ccc(C)cc2C)C(c2ccccc2[N+](=O)[O-])n2ncc(C(=O)Nc3ccccc3)c2N1 (stereo unspecified)	inconclusive: 11.2 µM [inhibitor, single point]	
CC(C)Oc1c(Br)cc(Br)cc1/C=N/NC(N)=S	active: 2.51 µM	
O=C(CN1CCN(S(=O)(=O)c2cc(Cl)ccc2Cl)CC1)Nc1cccc(F)c1	inconclusive: 31.6 µM [inhibitor, single point]	
COCCN(C(=O)COC(=O)c1cc2ccccc2cc1OC)c1c(N)n(Cc2ccccc2)c(=O)[nH]c1=O	inconclusive: 28.2 µM [inhibitor, single point]	
COc1ccc(CNC(=O)c2sc(=O)n(Cc3ccc(C)cc3)c2C)cc1	inconclusive: 31.6 µM [inhibitor, single point]	
CCOC(=O)C1CCN(S(=O)(=O)c2cc(C(=O)N3CCCCC3)ccc2OC)CC1		inactive: 9.51%

Structure (SMILES)	Potency	activity change, negative = inhibition
Cc1ccc2c(c1)N(C(=O)CCC(=O)NCc1cccc(Br)c1)CC(C)O2 (stereo unspecified)	inconclusive: 10 µM [inhibitor, partial curve, poor fit]	
Cc1cc(CCNC=O)c(C)c2c1sc1ccccc12	inconclusive: 11.2 µM [inhibitor, single point]	
O=S1(=O)CCOC[C@H](CC2CCCCC2)N1Cc1cccc(F)c1	inconclusive: 14.1 µM [inhibitor, single point]	
Cn1c(SCC(=O)N2c3ccccc3CCc3ccccc32)nnc1-c1cc2ccccc2cc1O	inconclusive: 28.2 µM [inhibitor, single point]	
Cc1ccc(C)c(N2CCN(C(=O)C3CCN(c4nc(-c5ccc(C(C)C)cc5)no4)CC3)CC2)c1	inconclusive: 6.31 µM [inhibitor, partial curve]	
Cc1ccc([C@@H]2CC=C(C(=O)O)[C@H](c3ccccc3F)N2S(=O)(=O)c2ccc(C)cc2)cc1		inconclusive: -31.8% [inhibitor]
CC1CC(C)CN(C(C)C(=O)Nc2cc(S(=O)(=O)N3CCCCC3)ccc2Cl)C1 (stereo unspecified)	inconclusive: 14.1 µM [inhibitor, single point]	
COc1cccc(NC(=O)CSc2nc3ccccc3cc2Cc2ccccc2)c1	inconclusive: 7.94 µM [inhibitor, partial curve, poor fit]	
NC(=S)NN=C1C=CCCC1	inconclusive: 31.6 µM [inhibitor, single point]	
COc1ccc(C(C)=O)cc1CSc1nc2ccccc2c(=O)n1-c1cccc(C)c1	inconclusive: 6.31 µM [inhibitor, partial curve]	
c1ccc2c(c1)CCCN2Cc1nnnn1C1CCCC1	inconclusive: 28.2 µM [inhibitor, single point]	
COc1ccc(CNC(=O)CSc2nnnn2-c2ccc(O)cc2)cc1	inconclusive: 25.1 µM [inhibitor, partial curve, poor fit]	
OC1(CC#CCN2CCCCC2)c2ccccc2-c2ccccc21	inconclusive: 6.31 µM [inhibitor, partial curve, poor fit]	
CN(C(=O)COC(=O)c1ccc2ccccc2n1)c1ccccc1		inactive: -9.4%
Cc1cccc(NC(=O)C(Cc2ccccc2)n2cccc2)c1 (stereo unspecified)	inconclusive: 10 µM [inhibitor, partial curve, poor fit]	
Cc1ccc(F)c(NC(=O)c2ccc(Cn3cc(Cl)cn3)cc2)c1	inconclusive: 10 µM [inhibitor, partial curve, poor fit]	
CCN(CC)c1ccc(/C=N/NC(=O)c2ccoc2C)cc1	inconclusive: 12.6 µM [inhibitor, partial curve, poor fit]	
Cc1nc2c(-c3ccc(F)cc3)cnn2c(N)c1-c1ccccc1	active: 0.891 µM	
Cc1nn(C)cc1C(C(=O)NC1CCCCC1)N(C(=O)Cc1cccs1)c1ccc(C(C)C)cc1 (stereo unspecified)	inconclusive: 28.2 µM [inhibitor, single point]	
